Whole data set: some 33,000 sequences, median “E-score (-0.5 to 0.5)” near -0.041, cut for the highest 2% near 0.37. This is one part of the list.
Each sequence was assayed against T1, Ecm22 (UniProt Q05958) (assay: PBM E-score (8-mer binding enrichment) (E-score (-0.5 to 0.5)); higher = stronger / more preferred TF binding; most listed sequences are background and not binding sites). Settings: protein concentration: 200 nM; construct: GST-full length.
T1 sequence: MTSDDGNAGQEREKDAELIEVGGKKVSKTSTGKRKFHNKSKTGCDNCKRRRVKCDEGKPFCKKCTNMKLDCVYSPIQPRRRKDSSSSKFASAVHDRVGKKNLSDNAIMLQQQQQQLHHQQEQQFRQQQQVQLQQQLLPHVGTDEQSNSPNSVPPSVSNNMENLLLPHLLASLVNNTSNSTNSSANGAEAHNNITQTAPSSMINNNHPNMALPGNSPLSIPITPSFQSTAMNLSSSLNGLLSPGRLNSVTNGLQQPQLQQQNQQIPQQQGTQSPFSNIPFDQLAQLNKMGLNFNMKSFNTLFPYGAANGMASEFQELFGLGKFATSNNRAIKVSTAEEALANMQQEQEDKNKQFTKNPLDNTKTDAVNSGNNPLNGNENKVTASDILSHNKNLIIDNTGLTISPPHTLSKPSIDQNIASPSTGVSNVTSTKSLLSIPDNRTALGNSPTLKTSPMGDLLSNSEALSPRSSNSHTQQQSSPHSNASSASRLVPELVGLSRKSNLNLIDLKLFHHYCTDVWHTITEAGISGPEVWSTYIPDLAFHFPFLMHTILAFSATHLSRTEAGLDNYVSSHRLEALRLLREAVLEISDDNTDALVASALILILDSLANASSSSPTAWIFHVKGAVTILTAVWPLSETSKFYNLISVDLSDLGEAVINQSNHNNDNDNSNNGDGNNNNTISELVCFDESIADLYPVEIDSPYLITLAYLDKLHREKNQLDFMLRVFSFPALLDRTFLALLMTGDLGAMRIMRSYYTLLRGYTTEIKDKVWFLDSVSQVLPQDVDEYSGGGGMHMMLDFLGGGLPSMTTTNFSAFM
Procedure, shortened: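 Masliner-normalised scans of fluorescent anti-GST signal were the basis for scoring. That signal came from GST-tagged yeast transcription factors applied at about 100-200 nM to double-stranded universal all-10-mer Agilent arrays on fresh or once-stripped slides. Each ungapped eight-base word, pooled with its reverse complement, received an E-score from the Universal PBM Analysis Suite.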

Sequence	PBM E-score
CTTTGCGC	0.00514
ATCAAGCG	-0.00695
CATTTCGC	0.218
AAAATGAA	-0.0273
ACAATGTG	-0.0558
GTTTGAAA	-0.00051
CGCTTACC	0.269
GCCACATA	-0.183
ACATGCGT	0.0355
CCTTAACG	0.261
AAATGCGG	0.0727
CACCACCA	-0.196
CTGCACCC	-0.00101
CGAGGAAA	0.103
ATGACGGC	-0.236
CTATTTTC	-0.0389
GCGCTGAC	-0.288
CATATACA	0.0321
GGATGCCC	-0.181
ACCGAGCT	0.235
CTAGGTAC	0.122
CGCAGACA	-0.0696
CATAGTGA	-0.00227
ATGGTCAA	-0.043
CATCCCAG	-0.0467

Sequence	PBM E-score
ATATTCCA	-0.0712
AAGGTACA	-0.0107
CGCTAAAG	0.138
AAAAGTCA	-0.236
CAAAGAGA	-0.148
ACTTGTGC	0.0182
TCGTTGAA	0.31
ATAACTCC	-0.0635
AAATCCTC	-0.132
GCTGGCCC	-0.269
CTTTACAC	0.0711
AGATATGC	-0.153
CAGCAGAG	-0.187
AAGCGTCC	-0.0106
AAAGCGAC	0.17
GGGAATAA	0.0656
ATAAAAAG	0.0542
ACGACCCG	0.271
ACGGGGGA	0.16
CCATCGCC	-0.203
CACGGTGC	-0.107
CCTATACA	-0.00901
CGTCCCCA	-0.228
GGATTTGA	0.12
AATACGCC	-0.0676

Sequence	PBM E-score
AAAGCACT	0.0197
CTCTGCAC	-0.0504
CCGCTATC	0.0478
GACGGTTA	-0.224
ACAAGGAT	-0.127
GAATAATA	0.136
ACGGAACC	0.218
CTACGTAC	0.27
CTGGTGAA	-0.106
CATTATCG	0.147
ATCGGTCA	0.0929
GGTATCAC	-0.101
GGCATCAC	-0.0854
ATACACAT	0.0154
GTACAGCA	0.233
ACAGATAC	0.15
AGGTTTTC	0.199
AATTCGGT	0.216
ACCTTAAA	-0.126
AGCCTAGG	-0.288
GTCACCTA	-0.102
GTCAGTCA	-0.193
CTGTATAC	0.207
ACTTAATC	-0.0762
ACGATTGC	0.302

Sequence	PBM E-score
GGGACCTA	0.0747
CGCACACG	-0.0118
AGAGTCTA	0.00529
ATTTAAAA	-0.0732
ATTGTGAC	-0.145
GTCAAGAA	0.0699
CTGAGGGA	-0.0479
GCAGTTTA	-0.0818
GTACGCAA	0.25
CCCGGCAC	-0.159
CCCAAGTA	-0.143
CTAGCAGA	-0.0379
AATCAAGG	0.0121
AGCACCGC	0.118
AGCTGAAG	-0.139
GGAGTGAA	-0.0263
GTGTCGGA	0.0575
TCATTCAA	-0.0805
AGGTGTTG	-0.119
TAGAAGCA	-0.173
ACCGCACC	0.0901
AACCATAA	-0.167
CCCAAACC	-0.0875
CAATAATA	-0.0222
AAGTGGAA	-0.064

Sequence	PBM E-score
CAGCCTTA	-0.323
CGAACCTC	0.146
AACGGTGC	0.27
ACTGGGCC	-0.247
ACGTCCCG	-0.0251
CAAAATCG	0.11
GATTACCC	-0.215
GATAGGCC	-0.0611
CCTAAGGC	-0.359
GACCCGAA	0.0537
GATTCGCA	0.227
ACCATGCA	-0.228
CAATCATG	-0.0538
AGTTCTGG	-0.0431
GCGAGACA	0.161
CAATCATC	-0.11
AAGCCCAC	-0.0242
CTTCGCCA	-0.169
ACCGCCAT	-0.129
ACAATGGC	-0.0717
GTACTGAA	0.248
CTGGCCGA	0.051
ACGCGTCC	-0.0747
AGCATTTA	0.0779
CTGGCAGC	-0.158

Sequence	PBM E-score
CGGATCCC	0.0138
AGACTTGC	-0.104
GGCTAATA	0.065
AGAAAGGG	-0.262
CAAGCGCG	0.0633
AGGAGGTG	-0.298
CGAGATCC	0.2
ACAAGCTG	0.0253
GCGTAGCC	-0.0221
CATGGTCA	0.0751
CACCTAAA	-0.0218
AAGCAGTA	-0.085
ATCGAGAA	0.114
AGTCACGG	-0.0876
AGGCGCAT	-0.136
CTAATTCC	-0.231
CACACGCC	-0.114
GTCTTCTA	-0.101
CGCTTTGC	-0.00819
CAACCCAC	-0.117
AACCCAAT	-0.225
CCCTGTAC	-0.00346
AATGGACA	-0.0492
TGTTATAA	0.0469
GCGGAGAA	0.038

Sequence	PBM E-score
CCTCGTGA	0.201
GTTAAGAA	-0.0835
AGCTAGTG	-0.0503
ATTCACGG	-0.0041
CGGTGAGC	0.057
ATAGTGTC	0.00694
CGCAAGTA	0.0813
CCGCTCGA	-0.03
AACCGAAC	0.21
CCTGTCTA	-0.248
CCTGGCGC	-0.0858
AGTTCACG	0.163
CCGACAAA	0.0481
CCGAGAAG	0.0409
CAACTCCC	-0.0438
AAGTTCAC	-0.0931
CGCTTCGC	0.219
AGTGAAAC	0.0286
CCCATATA	-0.111
GGGACACA	-0.104
CATTATGC	0.0457
CCCATCCG	0.139
